Reference: patent US10130096B2, “Method for protecting useful plants or plant propagation material” (SYNGENTA PARTICIPATIONS AG, priority 2011, dated 2018)
Some of these results come from one statement about several compounds together.

Key:
[1] = system: Pyrenophora teres (Helminthosporium teres); test: Pyrenophora teres on barley plants; format: in vivo; settings: 60 ppm; 1-week old barley plants cv. Regina, spray, inoculated 2 days after application
[2] = system: Pyrenophora graminea; test: Example B-4: seed treatment against Pyrenophora graminea on barley; format: in vivo; settings: rate of 20 g/100 kg seeds; infected winter barley seeds, number of infected plants
[3] = system: Fusarium subglutinans; test: Example B-2: seed treatment against Fusarium subglutinans on maize; format: in vivo; settings: rate of 20 g/100 kg seeds; infested maize seeds on agar, 6 days at 20° C., percentage of infected seeds
[4] = system: Gäumannomyces graminis; test: Gäumannomyces graminis on Wheat/Pouch; format: in vivo; settings: 20 ppm; wheat, pouch, 15 days incubation
[5] = system: Monographella nivalis (Syn. Microdochium nivale); test: Example B-3: seed treatment against Monographella nivalis on wheat; format: in vivo; settings: rate of 20 g/100 kg seeds; infected winter wheat seeds, number of infected plants
[6] = system: Plasmopara viticola; test: Plasmopara viticola on grape vine leaf disks; format: in vivo; settings: 200 ppm, inoculated 1 day after application, 6-8 days after application
[7] = system: Phaeosphaeria nodorum (Septoria nodorum); test: Phaeosphaeria nodorum on wheat leaf segments; format: in vivo; settings: 200 ppm; wheat leaf segments cv. Kanzler, inoculated 2 days after application, 5-7 days after application
[8] = system: Monographella nivale (syn. Microdochium nivale); test: Monographella nivale on Wheat/Pouch; settings: 20 ppm; wheat, pouch, artificially infected seeds, 28 days incubation
[9] = system: Blumeria graminis (Erysiphe graminis); test: Blumeria graminis on wheat leaf segments, preventive; format: in vivo; settings: 200 ppm; wheat leaf segments cv. Kanzler, inoculated 1 day after application, 6-8 days after application

Row | Compound | control of Pyrenophora graminea [2] | control of Fusarium sublutinans [3] | control on Gäumannomyces graminis [4] | further results
1 | OB1OCc2cc(Cl)ccc21 [Compound 1, 5-Chloro-3H-benzo[c][1,2]oxaborol-1-ol] | at least 80% | at least 80% |  | control on Pyrenophora teres [1]: at least 60%
2 | CCC(N)COB1OCc2cc(Cl)ccc21 (stereo not drawn) [Compound 2, 1-(5-Chloro-3H-benzo[c][1,2]oxaborol-1-yloxymethyl)-propylamine] | at least 80% | at least 80% |  | control on Pyrenophora teres [1]: at least 60%
3 | NCC(OB1OCc2cc(Cl)ccc21)c1ccccc1 (stereo not drawn) [Compound 3, 2-(5-Chloro-3H-benzo[c][1,2]oxaborol-1-yloxy)-2-phenyl-ethylamine] |  |  | at least 50% | 
4 | CNCCOB1OCc2cc(Cl)ccc21 [Compound 4, [2-(5-Chloro-3H-benzo[c][1,2]oxaborol-1-yloxy)-ethyl]-methyl-amine] |  |  | at least 50% | 
5 | NCCCOB1OCc2cc(Cl)ccc21 [Compound 5, 3-(5-Chloro-3H-benzo[c][1,2]oxaborol-1-yloxy)-propylamine] | at least 80% | at least 80% |  | control of Monographella nivalis [5]: at least 50%; control on Plasmopara viticola [6]: at least 80%
6 | O=[N+]([O-])c1ccc2c(c1)B(O)OC2 [Compound 7, 6-Nitro-3H-benzo[c][1,2]oxaborol-1-ol] |  |  | at least 50% | 
7 | OB1OCc2cc(F)ccc21 [Compound 8, 5-Fluoro-3H-benzo[c][1,2]oxaborol-1-ol] | at least 80% | at least 80% |  | control of Monographella nivalis [5]: at least 50%; control on Phaeosphaeria nodorum [7]: at least 80%; control on Monographella nivale [8]: at least 50%; control on Blumeria graminis [9]: at least 80%
8 | NCCCCOB1OCc2cc(Cl)ccc21 [Compound 10, 4-(5-Chloro-3H-benzo[c][1,2]oxaborol-1-yloxy)-butylamine] |  |  | at least 50% | 
9 | NCCCOB1OCc2cc(F)ccc21 [Compound 12, 3-(5-Fluoro-3H-benzo[c][1,2]oxaborol-1-yloxy)-propylamine] |  | at least 80% |  | control on Phaeosphaeria nodorum [7]: at least 80%; control on Monographella nivale [8]: at least 50%
10 | NCCCCOB1OCc2cc(F)ccc21 [Compound 13, 4-(5-Fluoro-3H-benzo[c][1,2]oxaborol-1-yloxy)-butylamine] |  | at least 80% |  | 
11 | OB1OCc2cc3ccccc3cc21 [Compound 15, 3H-2-Oxa-1-bora-cyclopenta[b]naphthalen-1-ol] |  |  |  | control on Plasmopara viticola [6]: at least 80%
12 | Clc1ccc2c(c1)COB2OC[C@@H]1CCCN1 [Compound 24, (S)-2-(5-Chloro-3H-benzo[c][1,2]oxaborol-1-yloxymethyl)-pyrrolidine] |  |  |  | control on Monographella nivale [8]: at least 50%
13 | CCC(CN)OB1OCc2cc(Cl)ccc21 (stereo not drawn) [Compound 26, 2-(5-Chloro-3H-benzo[c][1,2]oxaborol-1-yloxy)-butylamine] |  |  | at least 50% | 
14 | CC(N)COB1OCc2cc(Cl)ccc21 (stereo not drawn) [Compound 28, 2-(5-Chloro-3H-benzo[c][1,2]oxaborol-1-yloxy)-1-methyl-ethylamine] |  |  |  | control on Pyrenophora teres [1]: at least 60%
15 | CCC(N)COB1OCc2cc(F)ccc21 (stereo not drawn) [Compound 30, 1-(5-Fluoro-3H-benzo[c][1,2]oxaborol-1-yloxymethyl)-propylamine] | at least 80% | at least 80% |  | control on Phaeosphaeria nodorum [7]: at least 80%; control on Monographella nivale [8]: at least 50%
16 | NCCOB1OCc2cc(Oc3ccccc3)ccc21 [Compound 35, 2-(5-Phenoxy-3H-benzo[c][1,2]oxaborol-1-yloxy)-ethylamine] |  |  |  | control on Blumeria graminis [9]: at least 80%
